Laboratory results as given in the RNAGym collection of RNA variant scans (doi:10.1101/gad.245936.114).
Variants at the floor of the assay are shown more often than the library holds them.

B1: tRNA (parent)
chain: CUCUCGGUAGCCAAGUUGGUUUAAGGCGCAAGACUUUAAUUUAUCACUACGAAAUCUUGAGAUCGGGCGUUCGACUCGCCCCCGGGAGAUUUUUUCCUCGAGCAA

Variants of: B1
Assay: nonsense suppression (GFP-seq) (ratio to wild type); higher = more function; SUP4oc tRNA, yeast GFP reporter sort-seq
Summary of the method: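 Nonsense suppression (GFPSEQ) is the median GFP/RFP ratio of each sorting bin, weighted by the variant's estimated share of cells in that bin and expressed relative to the unmutated parent tRNA. Yeast strains carried genome-integrated variants of an ochre-suppressor tRNA from a library with ~3% random mutations, plus a galactose-driven GFP ochre reporter and RFP, and were grown in raffinose/galactose medium containing 80 mg/L adenine. Cells were sorted into GFP/RFP bins, each bin was Illumina-sequenced (phred ≥30), and variants were kept only with ≥100 reads and ≥30 cells.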

Nonsense suppression, 1.12:
CUCUCGGUAGCCAAGUUGGUUUAAGGCGCAAGACUUUAAUUUAUCACUACGAAAUCUUGAGAUCGGGCGUUCGACUCGCCCCCGUGAGAUUUUUUCCUCGAGCAA [G85U]

Nonsense suppression, 0.0881:
CUCUCGGUAGCCAAGUUGGUUUAAGGCGCAAGACUUUAAUUUAUCACUACGAAAUCUUGAGAUCGGGCGUUCGACUCGCCCCCGGCGGAUUUUUUCCUCGAGCAA [G86C A87G]

Nonsense suppression, 0.028:
CUCUCGGUAGCCAAGUUGGUUUAAGGCGCAAGACUUUAAUUUAUCACUACGAAAUCUUGAGAUCGGGCGUUCGACUCGCCCCCGGGACAUUUUUUCCUCGAGCAA [G88C]

Nonsense suppression, ≤ 0.026:
CUCUCGGUAGCCAAGUUGGUUUAAGGCGCAAGACUUUAAUUUAUCACUACGAAAUCUUGAGAUCGGGCGUUCGACUCGCCCCCGCGAGCUUUUUUCCUCGAGCAA [G85C A89C]
CUCUCGGUAGCCAAGUUGGUUUAAGGCGCAAGACUUUAAUUUAUCACUACGAAAUCUUGAGAUCGGGCGUUCGACUCGCCCCCGGUGGAUUUUUUCCUCGAGCAA [G86U A87G]
CUCUCGGUAGCCAAGUUGGUUUAAGGCGCAAGACUUUAAUUUAUCACUACGAAAUCUUGAGAUCGGGCGUUCGACUCGCCCCCCGAAGAUUUUUUCCUCGAGCAA [G84C G86A]
CUCUCGGUAGCCAAGUUGGUUUAAGGCGCAAGACUUUAAUUUAUCACUACGAAAUCUUGAGAUCGGGCGUUCGACUCGCCCCCGGGAGGUUUUUUCCUCGAGCAA [A89G]
CUCUCGGUAGCCAAGUUGGUUUAAGGCGCAAGACUUUAAUUUAUCACUACGAAAUCUUGAGAUCGGGCGUUCGACUCGCCCCCGGGAGUUUUUUUCCUCGAGCAA [A89U]
CUCUCGGUAGCCAAGUUGGUUUAAGGCGCAAGACUUUAAUUUAUCACUACGAAAUCUUGAGAUCGGGCGUUCGACUCGCCCCCGGGAGCUUUUUUCCUCGAGCAA [A89C]
CUCUCGGUAGCCAAGUUGGUUUAAGGCGCAAGACUUUAAUUUAUCACUACGAAAUCUUGAGAUCGGGCGUUCGACUCGCCCCCGCGGGAUUUUUUCCUCGAGCAA [G85C A87G]
CUCUCGGUAGCCAAGUUGGUUUAAGGCGCAAGACUUUAAUUUAUCACUACGAAAUCUUGAGAUCGGGCGUUCGACUCGCCCCCGGGUAAUUUUUUCCUCGAGCAA [A87U G88A]
CUCUCGGUAGCCAAGUUGGUUUAAGGCGCAAGACUUUAAUUUAUCACUACGAAAUCUUGAGAUCGGGCGUUCGACUCGCCCCCGGGAAGUUUUUUCCUCGAGCAA [G88A A89G]
CUCUCGGUAGCCAAGUUGGUUUAAGGCGCAAGACUUUAAUUUAUCACUACGAAAUCUUGAGAUCGGGCGUUCGACUCGCCCCCGAGACAUUUUUUCCUCGAGCAA [G85A G88C]
CUCUCGGUAGCCAAGUUGGUUUAAGGCGCAAGACUUUAAUUUAUCACUACGAAAUCUUGAGAUCGGGCGUUCGACUCGCCCCCGGAAUAUUUUUUCCUCGAGCAA [G86A G88U]
CUCUCGGUAGCCAAGUUGGUUUAAGGCGCAAGACUUUAAUUUAUCACUACGAAAUCUUGAGAUCGGGCGUUCGACUCGCCCCCGGUAUAUUUUUUCCUCGAGCAA [G86U G88U]
CUCUCGGUAGCCAAGUUGGUUUAAGGCGCAAGACUUUAAUUUAUCACUACGAAAUCUUGAGAUCGGGCGUUCGACUCGCCCCCGGCUGAUUUUUUCCUCGAGCAA [G86C A87U]
CUCUCGGUAGCCAAGUUGGUUUAAGGCGCAAGACUUUAAUUUAUCACUACGAAAUCUUGAGAUCGGGCGUUCGACUCGCCCCCGGAAGUUUUUUUCCUCGAGCAA [G86A A89U]
CUCUCGGUAGCCAAGUUGGUUUAAGGCGCAAGACUUUAAUUUAUCACUACGAAAUCUUGAGAUCGGGCGUUCGACUCGCCCCCGGAAGGUUUUUUCCUCGAGCAA [G86A A89G]
CUCUCGGUAGCCAAGUUGGUUUAAGGCGCAAGACUUUAAUUUAUCACUACGAAAUCUUGAGAUCGGGCGUUCGACUCGCCCCCGACAGAUUUUUUCCUCGAGCAA [G85A G86C]
CUCUCGGUAGCCAAGUUGGUUUAAGGCGCAAGACUUUAAUUUAUCACUACGAAAUCUUGAGAUCGGGCGUUCGACUCGCCCCCCAGCGAUUUUUUCCUCGAGCAA [G84C G85A A87C]
CUCUCGGUAGCCAAGUUGGUUUAAGGCGCAAGACUUUAAUUUAUCACUACGAAAUCUUGAGAUCGGGCGUUCGACUCGCCCCCGGGUGAUUUUUUCCUCGAGCAA [A87U]
CUCUCGGUAGCCAAGUUGGUUUAAGGCGCAAGACUUUAAUUUAUCACUACGAAAUCUUGAGAUCGGGCGUUCGACUCGCCCCCGGGCGAUUUUUUCCUCGAGCAA [A87C]
CUCUCGGUAGCCAAGUUGGUUUAAGGCGCAAGACUUUAAUUUAUCACUACGAAAUCUUGAGAUCGGGCGUUCGACUCGCCCCCGUGCGGUUUUUUCCUCGAGCAA [G85U A87C A89G]
CUCUCGGUAGCCAAGUUGGUUUAAGGCGCAAGACUUUAAUUUAUCACUACGAAAUCUUGAGAUCGGGCGUUCGACUCGCCCCCUGGACAUUUUUUCCUCGAGCAA [G84U G88C]
CUCUCGGUAGCCAAGUUGGUUUAAGGCGCAAGACUUUAAUUUAUCACUACGAAAUCUUGAGAUCGGGCGUUCGACUCGCCCCCGGGCCAUUUUUUCCUCGAGCAA [A87C G88C]
CUCUCGGUAGCCAAGUUGGUUUAAGGCGCAAGACUUUAAUUUAUCACUACGAAAUCUUGAGAUCGGGCGUUCGACUCGCCCCCGGGAUUUUUUUUCCUCGAGCAA [G88U A89U]
CUCUCGGUAGCCAAGUUGGUUUAAGGCGCAAGACUUUAAUUUAUCACUACGAAAUCUUGAGAUCGGGCGUUCGACUCGCCCCCGUCAGAUUUUUUCCUCGAGCAA [G85U G86C]
CUCUCGGUAGCCAAGUUGGUUUAAGGCGCAAGACUUUAAUUUAUCACUACGAAAUCUUGAGAUCGGGCGUUCGACUCGCCCCCGGGAAAUUUUUUCCUCGAGCAA [G88A]
CUCUCGGUAGCCAAGUUGGUUUAAGGCGCAAGACUUUAAUUUAUCACUACGAAAUCUUGAGAUCGGGCGUUCGACUCGCCCCCGGGAUAUUUUUUCCUCGAGCAA [G88U]

Nonsense suppression, 0.982:
CUCUCGGUAGCCAAGUUGGUUUAAGGCGCAAGACUUUAAUUUAUCACUACGAAAUCUUGAGAUCGGGCGUUCGACUCGCCCCCGAGAGAUUUUUUCCUCGAGCAA [G85A]

Nonsense suppression, 1.16:
CUCUCGGUAGCCAAGUUGGUUUAAGGCGCAAGACUUUAAUUUAUCACUACGAAAUCUUGAGAUCGGGCGUUCGACUCGCCCCCGGGGGAUUUUUUCCUCGAGCAA [A87G]

Nonsense suppression, 0.0446:
CUCUCGGUAGCCAAGUUGGUUUAAGGCGCAAGACUUUAAUUUAUCACUACGAAAUCUUGAGAUCGGGCGUUCGACUCGCCCCCGUGAAAUUUUUUCCUCGAGCAA [G85U G88A]

Nonsense suppression, 0.163:
CUCUCGGUAGCCAAGUUGGUUUAAGGCGCAAGACUUUAAUUUAUCACUACGAAAUCUUGAGAUCGGGCGUUCGACUCGCCCCCGCGAGAUUUUUUCCUCGAGCAA [G85C]
